# Measured values from PubChem BioAssay AID1794842 (National Center for Advancing Translational Sciences (NCATS), 2023).
# Among all 2,800 compounds or so, fewer than 10 were called active. Calls follow the shape of the dose curve; as a rule, active = well fitted curve in the direction sought with a large enough effect; inconclusive = small, poorly fitted or top-dose-only effect, or another doubt; inactive = no such curve, though single readings can be large or run the other way. The list shows a part of the results.
# Target: Metallo-beta-lactamase type 2 (Klebsiella pneumoniae) (UniProt C7C422)
# Experiment: qHTS to identify inhibitors of the New Delhi Metallo-beta-lactamase (NDM): Meropenem screen against the machine-based learning selections. Also: % of control where 0% means no effect.
# Settings: Purified NDM-1, meropenem hydrolysis, absorbance 300 nm; at 38.4 µM (top of the series) unless noted
# How it was run: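 Hydrolysis by 2 nM NDM-1 was followed by absorbance after >30 min compound preincubation in HEPES pH 7.0 buffer with 1 uM Zn2SO4. For nitrocefin (16.7 uM, 15 min, 485 nm) and meropenem (50 uM, 30 min, 300 nm), each substrate ran on separate plates.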
# UniProt C7C422, sequence (C7C422 whole entry, looked up): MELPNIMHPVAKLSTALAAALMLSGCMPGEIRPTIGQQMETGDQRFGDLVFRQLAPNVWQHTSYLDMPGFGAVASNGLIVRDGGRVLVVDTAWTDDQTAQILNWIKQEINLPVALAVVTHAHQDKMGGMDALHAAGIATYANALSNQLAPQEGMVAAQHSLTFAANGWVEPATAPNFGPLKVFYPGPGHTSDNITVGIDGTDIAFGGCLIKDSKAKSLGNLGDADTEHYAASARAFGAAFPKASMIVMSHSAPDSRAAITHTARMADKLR
row,SMILES,"activity change, negative = inhibition"
1,c1ccc(-c2nc3c(c(NCC4OCCc5ccccc54)n2)CCNCC3)nc1 (stereo unspecified),inactive: 68.4%
2,CCCOc1cc(C)c2c(c1C)C[C@H]([C@H](C)C(=O)NCCOC)CC2,inactive: 4.67% [at 57.5 µM]
3,COc1ccccc1-c1ccnc(N[C@H]2CO[C@H]3[C@@H]2OC[C@@H]3NS(=O)(=O)c2ccc3ccccc3c2)n1,inactive: -2.23%
4,COc1cc(CNC(=O)CCC2CCN(S(=O)(=O)c3ccccc3)CC2)cc(OC)c1,inactive: -0.0165%
5,COCCNc1ncccc1-c1cc(-c2ccccc2)nc2c(C)noc12,inactive: -0.683% [at 57.5 µM]
6,CCC(NC(=O)c1cc(Cn2ccc3ccccc32)[nH]n1)c1ncccc1C (stereo unspecified),inactive: -0.91%
7,O=C(O)[C@H]1C[C@@H](C(=O)NCc2ccccn2)CN(CC2CC2)C1,inactive: 22.1%
8,O=C([C@H]1C[C@@H](O)[C@H](O)[C@@H]2N=C(Nc3ccc(Cl)cc3)S[C@@H]21)N1CCOCC1,inactive: -0.168% [at 57.5 µM]
9,CNC(=O)[C@H]1C[C@H](Oc2cccnc2)CN1S(=O)(=O)c1ccc(OC)cc1,inactive: 1.89%
10,OCC#Cc1ccc(CN2CCC3(CCNCC3)C2)cc1,inactive: 9.07%
11,COc1ccc(-c2cn3c(n2)CO[C@@H](CNCc2ccc(Cl)cc2)C3)cc1,inactive: 2.33% [at 57.5 µM]
12,C[C@@H](NC(=O)c1ccccn1)c1onc(-c2ccc(Cl)cc2)c1C(=O)O,inactive: 60.9% [at 57.5 µM]
13,O=C(NCc1ccccc1)O[C@H]1COCCN(c2nc3ccccc3o2)C1,inactive: 0.432% [at 57.5 µM]
14,COc1ccc(-c2cnc3[nH]cc(CC(=O)Nc4ccncc4)c3c2)cc1,inactive: 6.31% [at 57.5 µM]
15,COc1ccc(NC(=O)N[C@H]2CO[C@H]3[C@@H]2OC[C@@H]3n2nnnc2-c2ccc3c(c2)OCO3)cc1,inactive: 4.93%
16,COc1cccc(NC(=O)CCc2ccc3c(c2)CN(S(C)(=O)=O)CCO3)c1,inactive: 0.177%
17,O=C(C1CC1)N1CCC2(CC1)CCN(CCc1ccccc1)c1ccccc1O2,inactive: -0.12%
18,NC(=O)CN1CCC2(CC1)CCN(C(=O)Cc1cnc[nH]1)CC2CO (stereo unspecified),inactive: -1.94%
19,O=C(O)c1ccnc(-c2ccnc(NCCCN3CCCC(O)C3)n2)c1 (stereo unspecified),inactive: 34.1%
20,O=C(COc1ccccc1)N[C@H]1CO[C@H]2[C@@H]1OC[C@@H]2n1nnnc1Oc1ccc2c(c1)OCO2,inactive: -0.427%
21,COC[C@H]1C[C@@H](NC(=O)c2cc(C(C)(C)C)oc2C)[C@H](O)[C@@H]1O,inactive: 11.3% [at 57.5 µM]
22,CC(O)c1cc2n(n1)CCN(C1CCN(C(=O)c3cnccn3)CC1)C2 (stereo unspecified),inactive: 2.84%
23,Cc1ncsc1C(=O)N1CCCC(c2ccc(C(=O)O)cc2)C1 (stereo unspecified),inactive: -2.23%
24,CC1(C(=O)NCCCn2ccnc2)CCCc2cnc(Nc3ccccc3)nc21 (stereo unspecified),inactive: 3.8% [at 57.5 µM]
25,COc1ccc(CN2C(=O)[C@@H]3C[C@@H](O)CN3C3(CN(C4CCC4)C3)C2=O)cc1,inactive: 1.51% [at 57.5 µM]
26,COc1ccc(C(=O)N[C@H]2CO[C@H]3[C@@H]2OC[C@@H]3n2cc(CN(C)Cc3ccccc3)nn2)cc1,inactive: -0.423%

row,SMILES,"activity change, negative = inhibition"
1,CN1C[C@@H](NS(=O)(=O)c2ccc(Cl)cc2)C[C@H]1c1nc(-c2ccc(F)cc2)no1,inactive: 0.972%
2,NC(=O)[C@H](Cc1ccc(O)cc1)NC(=O)C1=C[C@@H](NC(=O)Nc2ccc(OC(F)(F)F)cc2)[C@@H](O)[C@H](O)C1,inactive: -0.0211%
3,CC(C)(C)c1ccc(C(=O)Nc2nc3c(s2)C[C@@H]2[C@](C)(CO)[C@H](O)CC[C@@]2(C)[C@@H]3CC(=O)NC2CC2)cc1,inactive: 1.17%
4,O=C1CCCCC(CNC(=O)c2cc(F)ccc2F)N1 (stereo unspecified),inactive: -1.57%
5,CCCCNC(=O)c1cccc(CN2C(=O)CC(c3ccccc3C)C(C(=O)OCC)=C2C)c1 (stereo unspecified),inactive: 5.31%
6,CN(Cc1cccnc1)c1ccc2ncc(Nc3cccc(N[S+](C)(=O)[O-])c3)n2n1,inactive: 72.1% [at 57.5 µM]
7,CC(=O)N[C@H]1CC[C@]2(C)CC[C@@H](C(C)C(=O)NC3CCCC3)[C@H](O)[C@H]2[C@@H]1C (stereo partly specified),inactive: 0.768% [at 57.5 µM]
8,O=C(COc1ccccc1Cl)N1CCCC(O)(CN2CCCC2)C1 (stereo unspecified),inactive: -0.507%
9,O=C(Cn1nccn1)NC1CC(c2cc(N3CCC(O)C3)ncn2)C1 (stereo unspecified),inactive: 3.33%
10,CCCN1C(=O)Cc2ccccc2C1C(=O)NCc1cccc(C)c1 (stereo unspecified),inactive: 0.922%
11,C=CCN(Cc1cnc(-c2cccc(C)c2)nc1)Cc1ccccn1,inactive: 18%
12,CCOCc1nc(C2CCCN(C(=O)c3ccc(C)cc3)C2)no1 (stereo unspecified),inactive: -0.353%
13,CC(C)(C)c1nnc([C@H]2CCN(Cc3ccco3)C2)o1,inactive: 24.3% [at 76.7 µM]
14,Cc1noc2c(-c3cccc(CO)c3)cc(-c3ccc(F)cc3)nc12,inactive: -0.0708% [at 57.5 µM]
15,Cc1ccc2[nH]c(CCCn3cc(-c4nccn4C)nn3)nc2c1C,inactive: 0.719%
16,CC(C)C1c2nccn2CCCN1C(=O)c1ccc(Cn2cncn2)o1 (stereo unspecified),inactive: 3.75%
17,CCC[C@H]1C[C@H]1C(=O)N1CCC2(CCC(=O)N(CC(N)=O)C2)CC1,inactive: -0.108%
18,CCc1cc(N2CCOC(c3ccc4cc(OC)ccc4c3)C2)nc(C)n1 (stereo unspecified),inactive: 0.291%
19,CN(Cc1ccccc1)Cc1cn([C@H]2CO[C@H]3[C@@H]2OC[C@@H]3NC(=O)NCc2ccccc2)nn1,inactive: -1.86%
20,CC1=C[C@@H](CNC(=O)Cc2ccccc2)[C@H](C(C)C)C[C@H]1Cc1nc2ccncc2[nH]1,inactive: 49.5% [at 57.5 µM]
21,CN(C)c1ccc(NC(=S)N[C@H]2CO[C@H]3[C@@H]2OC[C@H]3OC(=O)Nc2cccc3ccccc23)cc1,inactive: 0.89%
22,CCCC1=Nc2cc(C(=O)NCCc3ccc(OC)c(OC)c3)ccc2Sc2ccccc21,inactive: 2.09%
23,CN(Cc1cc(C[C@@H]2C[C@H](NC(=O)COc3ccccc3)C2(C)C)no1)c1ccccc1,inactive: 2.11% [at 57.5 µM]
24,COc1ccc(CN2C(=O)COC[C@@H]2[C@H](O)c2ccc(NC(=O)CC(C)(C)C)cc2)cc1,inactive: -0.585%
25,CCN1C(=O)CCc2cc(NC(=O)c3ccc(C(C)C)cc3)ccc21,inactive: 0.804%
26,NC(=O)c1nc(CNC(=O)CC(c2ccccc2)c2cccc(Cl)c2)no1 (stereo unspecified),inactive: -2.99%

row,SMILES,"activity change, negative = inhibition"
1,CC(C(=O)N1CCCC1)N1CCC2(CCC(=O)N(CCO)C2)CC1 (stereo unspecified),inactive: -3.33%
2,OCc1ccc(CN2C[C@H](O)C[C@H]2c2nc(-c3ccc(F)cc3)no2)o1,inactive: 12.8% [at 57.5 µM]
3,Cc1ccc2c(C)c(C(=O)N3CC(OCc4ccccc4F)C3)oc2c1,inactive: 4.72%
4,CNS(=O)(=O)c1ccc(C2CC(=O)Nc3cc(O)c(OC)cc32)cc1 (stereo unspecified),inactive: -1.2%
5,COCc1cn(C[C@H]2C[C@@H](NCc3nccs3)[C@H](O)[C@@H]2O)nn1,inactive: 47.1%
6,Cc1ccc(S(=O)(=O)Cc2noc([C@@H]3C[C@@H](O)CN3Cc3ccc(S(C)(=O)=O)cc3)n2)cc1,inactive: -3.18%
7,O=C1Nc2ccccc2CC12CCN(Cc1cccnc1)CC2,inactive: 1.81% [at 57.5 µM]
8,CC(=O)N[C@@H]1C[C@H](Cc2ccccc2)O[C@H](c2c(C)nc3sccn23)C1,inactive: -0.712%
9,CCOC(=O)c1cccc(NC(=O)O[C@@H]2CO[C@H]3[C@@H]2OC[C@@H]3n2nnnc2SC2CCCC2)c1,inactive: 1.08%
10,COc1ccc(CN2C=C(C(=O)OCc3noc(-c4cccc(OC)c4)n3)C(C)=NS2(=O)=O)cc1,inactive: 1.39%
11,O=C(NCCc1cnc[nH]1)C1CCN(C2CCCCC2)CC1,inactive: 0.443%
12,O=C(Nc1ccsc1)N[C@H]1C[C@H]2C(=O)NC[C@@H](CCC(=O)N3CCCCC3)N2C1,inactive: 6.97% [at 57.5 µM]
13,Cc1noc([C@@H](C)NC(=O)Nc2cccnc2)c1C(=O)O,inactive: 49.7% [at 57.5 µM]
14,COC(=O)[C@@H]1Cc2nc[nH]c2CN1C(C)C,inactive: 14.4% [at 76.7 µM]
15,OC(CCc1ccccc1)C1CCN(Cc2nc(-c3ccccn3)no2)CC1 (stereo unspecified),inactive: 0.701%
16,CN(C)S(=O)(=O)CCCN1CC[C@@H](NC(=O)c2ccccn2)[C@H](O)C1,inactive: 1.55%
17,COc1cncc([C@@H](NC(=O)Cc2cn3ccsc3n2)C2CC(O)C2)c1 (stereo partly specified),inactive: 9.51%
18,O=C(Nc1ccc(Oc2ccccc2)cc1)N[C@H]1CO[C@H]2[C@@H]1OC[C@H]2OC(=O)Nc1cccc(C(F)(F)F)c1,inactive: 1.79%
19,Cc1ccc(S(=O)(=O)N[C@H]2CO[C@H]3[C@@H]2OC[C@H]3OCC(N)=O)cc1,inactive: 0.722% [at 57.5 µM]
20,CC[C@H]1CN(C(=O)C(C)(C)C)CC[C@H]1CC(=O)NCCSC,inactive: 1.03% [at 57.5 µM]
21,Cn1ccnc1CN[C@@H]1C[C@H](CO)[C@@H](O)[C@H]1O,inactive: 0.35% [at 76.7 µM]
22,CC(C)c1ccc(C(=O)N2CCCC[C@H](N(C)C)C2)c(=O)n1C,inactive: 0.699%
23,CC(=O)Nc1cccc(-c2ccc3ncn(-c4cccnc4)c(=O)c3n2)c1,inactive: 11.4% [at 57.5 µM]
24,Oc1ccccc1CN1CCNc2cnc(-c3ccccc3)cc2C1,inactive: 10.3% [at 57.5 µM]
